In all, about 33,000 sequences were measured (“E-score (-0.5 to 0.5)”: median about -0.04, highest 2% from about 0.36 on). Some of the results follow.
What follows are sequences tested against T1, Hmlalpha2 (UniProt P0CY09) (assay: PBM E-score (8-mer binding enrichment) (E-score (-0.5 to 0.5)); higher = stronger / more preferred TF binding; most listed sequences are background and not binding sites). Details: protein concentration: 200 nM; construct: GST-full length.
T1 sequence: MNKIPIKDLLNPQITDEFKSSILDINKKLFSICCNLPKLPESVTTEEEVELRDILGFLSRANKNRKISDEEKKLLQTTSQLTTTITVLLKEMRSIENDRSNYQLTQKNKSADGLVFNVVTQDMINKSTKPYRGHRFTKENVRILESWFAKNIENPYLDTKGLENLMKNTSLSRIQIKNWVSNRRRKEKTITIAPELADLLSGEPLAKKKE
How it was run: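 E-scores (a modified Wilcoxon-Mann-Whitney statistic) were assigned by the Universal PBM Analysis Suite to every ungapped eight-base word pooled with its reverse complement. The input came from universal all-10-mer Agilent arrays made double-stranded by primer extension and probed with GST-tagged yeast transcription factors at about 100-200 nM. Fluorescent anti-GST detected bound protein, and masliner normalised the scans.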

| Sequence | PBM E-score |
| --- | --- |
| CGCCCCTA | -0.159 |
| AACAGTAG | 0.129 |
| ACGACGTC | -0.169 |
| CAAGAGAA | 0.154 |
| CGTACTGA | 0.0611 |
| ACGGAGCT | -0.19 |
| AAGCCCCA | -0.357 |
| ATTTTCTG | -0.131 |
| ATAACTGC | 0.0983 |
| AGCAAGTC | -0.0673 |
| ATCTATCG | -0.0801 |
| GATTCTAA | 0.0651 |
| AAATCGGA | -0.121 |
| GTCATTGA | 0.0956 |
| AAGTCCGG | -0.249 |
| ACCGCACA | -0.158 |
| ACCTATTC | -0.184 |
| AAAGGCTA | -0.152 |
| GCGTCACA | -0.138 |
| CCTCCAAA | -0.145 |
| ACGTCGGC | 0.128 |
| AGTAAGAG | -0.0366 |
| AACATAGG | 0.38 |
| CACACCGC | -0.0386 |
| TAAACTGA | 0.107 |

| Sequence | PBM E-score |
| --- | --- |
| ACAAGGGA | 0.152 |
| ACGCTCGA | -0.0985 |
| AGTTGTAG | 0.122 |
| GCTGCGCA | -0.161 |
| AGCTGACA | 0.133 |
| AGCGGCCT | -0.243 |
| CCGTATTC | 0.0456 |
| GCTAAGTA | 0.221 |
| CCTTTGCA | 0.0538 |
| CACGCGTC | 0.174 |
| GGGTAACA | 0.17 |
| ATATAATA | 0.199 |
| CGCCATGC | -0.0795 |
| CACGGGGC | -0.0642 |
| CGCCGTGA | -0.0727 |
| AGAGGTCA | -0.192 |
| GGGGGACA | -0.264 |
| CGCCTTAA | 0.153 |
| CGTGGAAG | 0.00434 |
| GGTGTGGA | -0.101 |
| CATTCACG | 0.0115 |
| GGACCTAA | -0.157 |
| ATCACTTC | -0.0191 |
| AGACCCTC | -0.192 |
| CCCTTAAC | -0.0469 |

| Sequence | PBM E-score |
| --- | --- |
| CACGGGCA | 0.0513 |
| CAGTAACC | -0.0933 |
| AACTTTGT | 0.147 |
| CTTCTGGC | -0.267 |
| GGTTATCA | -0.162 |
| ATTCCCCA | -0.166 |
| CTTTTGTA | 0.191 |
| AGCGAGAC | -0.201 |
| CTCATGCC | -0.23 |
| ACGACGGG | 0.0157 |
| CCTGGACA | -0.219 |
| TGCAACCA | -0.0594 |
| GTGGTGAA | -0.123 |
| CCTAGTAC | 0.134 |
| CCAGGCAA | -0.265 |
| CTGCACCA | -0.239 |
| CGTTCAAA | 0.0795 |
| AGTTCCTG | -0.266 |
| CATTGCGA | 0.0418 |
| AATCTGAT | 0.0185 |
| TGGCTCAA | -0.206 |
| CCTCTTAC | -0.00492 |
| GGGTTAAC | 0.185 |
| AGCAAACA | 0.104 |
| CCAGGTCA | -0.0431 |

| Sequence | PBM E-score |
| --- | --- |
| CAGCGTCA | -0.195 |
| GGATTCCC | -0.312 |
| CATTGAGA | -0.0624 |
| ACTACCTA | 0.167 |
| GCTCTGCC | -0.162 |
| CCCTAGCA | -0.125 |
| GTGTAGAA | 0.445 |
| CTATAGAC | -0.156 |
| CGACGAAG | -0.00856 |
| GGTTTGCA | 0.0728 |
| AGCTTGGG | -0.235 |
| AATTACCC | -0.0352 |
| CCAAAGCA | -0.0847 |
| CCAGAACC | -0.116 |
| GAAATGAA | 0.135 |
| CAGAATGA | -0.188 |
| ATCCTTGC | -0.0705 |
| AACCATTG | 0.159 |
| AGCCATAC | -0.142 |
| TGCACAAA | 0.104 |
| CCCGGATC | -0.176 |
| CAGGGTCG | -0.266 |
| CTCTTTTA | -0.152 |
| AGGTTCCG | -0.123 |
| AAAGATCC | -0.15 |

| Sequence | PBM E-score |
| --- | --- |
| CTTTTTAC | 0.274 |
| AAGATCGT | -0.0468 |
| ATGGTAAA | 0.185 |
| CGGAATAA | -0.0527 |
| CACTGCAC | 0.0538 |
| AGTTCTTG | 0.23 |
| ATGGCAAC | 0.15 |
| GAATGGTA | 0.232 |
| GTGTGTGA | 0.205 |
| AAATCGTA | 0.0949 |
| GTTCTTCA | 0.0278 |
| CACACAGG | 0.149 |
| ACAGACTC | -0.0748 |
| GATGTTGC | -0.0127 |
| GCTGCCAA | -0.129 |
| ATATGGCA | 0.00219 |
| CACCCACG | 0.056 |
| CGCTGTCA | -0.167 |
| ACCAGTTA | 0.0772 |
| AATCCTCG | -0.164 |
| CCGTTTAA | -0.00198 |
| AGTGTCTC | -0.253 |
| GCTGCGGA | -0.259 |
| GGACCCTA | -0.301 |
| GTGTATCA | 0.263 |

| Sequence | PBM E-score |
| --- | --- |
| ACAACAAG | 0.298 |
| CAGCACAC | -0.042 |
| CTAGCACA | -0.0578 |
| ACGTGCAT | 0.231 |
| ACTTCCCC | -0.218 |
| TTCGACAA | 0.279 |
| CGAGTAAC | 0.191 |
| CCCCAACG | 0.0317 |
| ACTCGTCA | 0.0364 |
| CTTAGGGA | 0.0427 |
| AAGTTAGG | -0.0362 |
| AGTGTCAG | -0.0525 |
| ACTCCATC | -0.0316 |
| ATTAACCG | 0.0455 |
| CAGTACTG | 0.0834 |
| ATGGATGC | -0.0116 |
| GACTCTAC | -0.149 |
| TACTGGAA | 0.071 |
| GGAGGGCA | -0.142 |
| CGGTCTAG | -0.119 |
| AAAATACG | 0.133 |
| CAATTTCA | -0.0193 |
| GTCCTAAC | 0.0264 |
| CACAGCGC | -0.0719 |
| CAATCGTA | 0.156 |

| Sequence | PBM E-score |
| --- | --- |
| ACTAGGGC | -0.192 |
| AAGGGGGG | -0.381 |
| CGCCGCCG | -0.0863 |
| ATCCAAAG | 0.102 |
| GTTTGTTA | 0.26 |
| ATGCGCGG | -0.0649 |
| AAACTGCG | -0.0299 |
| ATGGCAGA | -0.0394 |
| ATTGATCG | 0.083 |
| CCGCGCCG | -0.0597 |
| CCCGAGTC | -0.129 |
| ATGATGCG | 0.077 |
| CAACGTGA | 0.11 |
| TACGTTCA | 0.239 |
| AATCCTTC | -0.0524 |
| CACACCAC | 0.0299 |
| ACACCAAC | 0.0119 |
| GGTCCGAA | -0.0133 |
| ACGCTACA | 0.173 |
| GCGGAACC | -0.23 |
| CCATCTTC | -0.15 |
| TCACAGGA | 0.0453 |
